In all, about 340,000 compounds went through this assay and about 6,900 (2%) were called active. Rule as the data show it: active = inhibition above about 30%; inactive = below that, where a call was filed. The entries are a selection whose mix differs from that of the whole data set. Where no call is shown, the source filed none.
What follows are molecules tested against D(2) dopamine receptor (Homo sapiens) (UniProt P14416) (assay: HTS Assay for Allosteric Antagonists of the Human D2 Dopamine Receptor: Primary Screen for Antagonists). Conditions: HEK293 TREx D2 cells, calcium flux, dopamine EC80; at 10 µM; stronger effect = higher value.
Chain of UniProt P14416 (P14416 whole entry, looked up): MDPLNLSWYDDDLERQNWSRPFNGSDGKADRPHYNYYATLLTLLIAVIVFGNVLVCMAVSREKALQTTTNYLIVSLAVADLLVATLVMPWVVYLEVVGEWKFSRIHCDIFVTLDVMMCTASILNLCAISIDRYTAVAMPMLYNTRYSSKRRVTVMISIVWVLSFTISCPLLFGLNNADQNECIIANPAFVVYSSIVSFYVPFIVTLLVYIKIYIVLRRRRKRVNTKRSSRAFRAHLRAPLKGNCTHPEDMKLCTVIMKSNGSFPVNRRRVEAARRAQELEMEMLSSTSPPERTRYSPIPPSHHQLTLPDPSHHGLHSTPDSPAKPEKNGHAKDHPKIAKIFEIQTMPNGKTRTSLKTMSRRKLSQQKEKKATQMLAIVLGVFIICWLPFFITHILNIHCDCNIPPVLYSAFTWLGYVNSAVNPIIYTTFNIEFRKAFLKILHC
Method in brief: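 Read-out: kinetic calcium fluorescence (1 cycle/s) in inducible HEK293 T-REx D2 cells after an EC80 dopamine addition that followed 180 s compound preincubation. Loss of the dopamine response indicates antagonism.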
`O=C(CCC1N=C2c3ccccc3N=C(SCc3ccccc3F)N2C1=O)NCc1ccc(F)cc1` (centres undefined) showed an inhibition of -12.8%.
Molecule `CC(C)(C)c1ccc(C(=O)N2CCC(c3nc4ccccc4o3)CC2)cc1` has an inhibition of -8.15%.
`Cc1ccc(NC(=O)Cn2c(=O)n(CCC(=O)NCc3ccccc3Cl)c(=O)c3ccccc32)cc1` was tested, and the inhibition was 8.64%.
`Cc1ccc(-c2nnc3ccccc3c2C(=O)Nc2ccccc2F)cc1` was tested, and the inhibition was -5.25%.
`CCOc1ccccc1C(=O)N(Cc1ccccc1F)C1CCS(=O)(=O)C1` (centres undefined) gave an inhibition of 10.8%.
Molecule `COc1cc(NC(=O)C(CCSC)NS(=O)(=O)c2ccc3c(c2)oc(=O)n3C)cc(OC)c1` (centres undefined) has an inhibition of -4.1%.
For `COc1ccc(Cl)cc1NC(=O)CSc1cn(CC(=O)N2CCCCCC2)c2ccccc12`, the inhibition was 0.459%.
Work on `CCNc1nc(NC(C)(C)C)nc(Oc2ccc(=O)n(C)n2)n1` yielded an inhibition of -1.15%.
For `O=C(NCCc1ccccc1)C(=O)NCC(c1ccc2c(c1)OCO2)N1CCOCC1` (centres undefined), the inhibition was 9.79%.
In the case of `COc1cc(NC(=O)CC(C)n2nc(C)cc2C)cc(OC)c1` (centres undefined), the inhibition is reported as 16.6%.
Molecule `CC1CCN(S(=O)(=O)c2nnc(NC(=O)c3cccc(Br)c3)s2)CC1` has an inhibition of 5.64%.
Molecule `CCS(=O)(=O)N1CCc2cc(C(=O)NCCc3ccc(OC)cc3)ccc21` has an inhibition of 25.1%.
With `COc1ccccc1C(=O)NCC(=O)N/N=C(\C)Cc1ccccc1` the inhibition was active: 30%.
In the case of `CCc1ccccc1NC(=O)N1CCN(C(=O)c2nsc3ccccc23)CC1`, the inhibition is reported as 9.58%.
Work on `CC(=O)N1CCCC1c1nc2ccccc2n1Cc1ccccc1C` (centres undefined) yielded an inhibition of -16.1%.
Work on `CCc1ccc(NC(=O)CC2C(=O)N(c3cccc(C)c3)C(=O)N2Cc2ccco2)cc1` (centres undefined) yielded an inhibition of 1.01%.
Work on `CC1CCN(S(=O)(=O)c2ccc3c(ccn3CCC(=O)NCc3ccc(N(C)C)cc3)c2)CC1` yielded an inhibition of 1.55%.
Work on `COc1cccc2cc(C(=O)NCCc3c(C)[nH]c4ccc(F)cc34)c(=O)oc12` yielded an inhibition of 13.5%.
Work on `COc1ccc(NC(=O)CCc2c(C)nc3nc(CNC(=O)OC(C)(C)C)nn3c2C)cc1OC` yielded an inhibition of 2.08%.
Molecule `COc1ccc(CC2C(=O)Nc3ccc(Br)cc32)cc1OC` (centres undefined) has an inhibition of 8.47%.
In the case of `O=C(Nc1ccc(F)c(Cl)c1)C1CCCN(c2cnccn2)C1` (centres undefined), the inhibition is reported as -3.69%.
Work on `Cc1ccccc1CN1CCC(CNc2ncnc3onc(-c4ccc(F)cc4)c23)CC1` yielded an inhibition of 4.04%.
In the case of `Cc1ccc([N+](=O)[O-])c(OCCN2CCNCC2)c1`, the inhibition is reported as active: 71.5%.
`CCOC(=O)c1c(C)c(-c2ccccc2)n(CC(=O)Nc2cc(C)ccc2OC)c1C` showed an inhibition of -14.1%.
With `COc1cc(NC(=O)NC(C)c2c(-n3cccc3)sc3c2CCCC3)cc(OC)c1OC` (centres undefined) the inhibition was 20%.
For `CC(=O)Nc1ccc2nc(-c3cc(C)ccc3C)[nH]c2c1`, the inhibition was 20.1%.
With `CCc1cccc(-n2nnc(-c3nsc(NC(=O)c4cccs4)n3)c2C)c1` the inhibition was 12.9%.
With `Cc1ccc(OCc2ccc(-c3nc(C#N)c(NCc4cccnc4)o3)o2)cc1` the inhibition was -7.88%.
`CCCCN(CC)CCNC(=O)c1cn(C)c(=O)c2c1c1ccccc1n2C` showed an inhibition of -23.3%.
In the case of `CCN1CCC[C@H]1CNC(=O)c1cc(S(N)(=O)=O)ccc1OC`, the inhibition is reported as active: 87.4%.
With `NC1=NC[C@H](Cc2ccc(O)cc2)N1CCc1cccc(F)c1` the inhibition was active: 38.9%.
Work on `Cc1ccc(CN2C(=O)C3(c4ccccc42)N(c2cccc(F)c2)C(=O)CS3(=O)=O)cc1` (centres undefined) yielded an inhibition of 2.55%.
Molecule `CCOc1ccc(CNC(=O)Cn2cc3c(n2)-c2c(oc(C(=O)N4CCOCC4)c2C)CC3)cc1` has an inhibition of -1.56%.
With `Cc1ccc(Cl)cc1NC(=O)Cn1c(=O)oc2cc(S(=O)(=O)N3CCCC3)ccc21` the inhibition was -3.34%.
In the case of `Cc1ccc2c(CC(=O)Nc3ccc(S(=O)(=O)N4CCCCC4)cc3)coc2c1`, the inhibition is reported as -8.54%.
With `CCOc1ccccc1N(C)C(=O)C1CCCN(c2ncnc3c2nc2n3CCCCC2)C1` (centres undefined) the inhibition was 12.9%.
`Cc1ccc(NC(=O)c2cc(-c3ccc(Br)s3)nc3ccccc23)cc1F` showed an inhibition of -1.95%.
`Cc1cc(C)c2c(=O)nc(SCc3ccccc3C)n(C3CC3)c2n1` gave an inhibition of 14.9%.
Work on `COCCn1c(=NC(=O)c2ccc3c(c2)OCCO3)sc2cc(C(=O)OC)ccc21` yielded an inhibition of -8.03%.
`COc1ccc(C(=O)OC2=C(C(=O)c3ccccc3)N(C)S(=O)(=O)c3ccccc32)cc1OC` showed an inhibition of 27.3%.
`CCNC(=O)c1c(NC(=O)Cc2coc3cc(C)cc(C)c23)sc2c1CCCC2` showed an inhibition of 2.88%.
`COc1ccccc1N1CCN(S(=O)(=O)c2c(C)sc3ncn(CC(=O)N(C)c4ccc(Cl)cc4)c(=O)c23)CC1` gave an inhibition of 1.11%.
`Cc1c(C(=O)N2CCC(c3nc4ccccc4s3)CC2)oc2ccc(Cl)cc12` showed an inhibition of -12.7%.
`Oc1c(C(c2ccccc2F)N2CCN(Cc3ccccc3)CC2)sc2nc(-c3ccco3)nn12` (centres undefined) showed an inhibition of -9.99%.
`COC(=O)NCC(c1cccnc1)N1CCN(c2ccc(F)cc2)CC1` (centres undefined) gave an inhibition of -18.1%.
`Cc1ccc(-n2ncc3c(NCCC4=CCCCC4)ncnc32)cc1` showed an inhibition of 3.71%.
With `Cc1ccc(Cl)cc1NC(=O)C(C)n1nc(-c2ccccc2)ccc1=O` (centres undefined) the inhibition was -3.77%.
Molecule `CCc1ccccc1NC(=O)CCNS(=O)(=O)c1ccc2c(c1)CCN2C(=O)C1CC1` has an inhibition of -1.73%.
Molecule `Cn1c(=O)c2c(nc(SCC(=O)Nc3ccccc3F)n2Cc2ccc(Cl)cc2)n(C)c1=O` has an inhibition of 18%.
Work on `COc1ccc(C(=O)Nc2nnc(SCc3cc(=O)c4cc(C)cc(C)c4[nH]3)s2)cc1` yielded an inhibition of -21.4%.
In the case of `O=C(NCCN1CCOCC1)c1cc2sccc2n1Cc1ccc(F)cc1`, the inhibition is reported as active: 37.8%.
`Cc1ccc(CNC(=O)CCCn2c(=O)c3ccccc3n(CC(=O)Nc3ccc(C)c(C)c3)c2=O)cc1` was tested, and the inhibition was -3.62%.
`CCOc1ccc(CCNC(=O)CCCn2c(=O)c3cccn3c3ccccc32)cc1` was tested, and the inhibition was -16.4%.
`CCCn1c(CCC(=O)Nc2ccc(OCC)cc2)nc2cccnc21` was tested, and the inhibition was 5.69%.
For `Cc1ccc(-n2c(=O)c3c(C)c(C)sc3n(CC(=O)NCc3ccccc3)c2=O)cc1C`, the inhibition was 7.71%.
For `CC1CCc2c(sc(NC(=O)C3c4ccccc4Oc4ccccc43)c2C#N)C1` (centres undefined), the inhibition was 5.55%.
In the case of `Cc1cc(C)c(C(=O)c2ccc(C(=O)NC(C)(C)C)cc2)c(C)c1`, the inhibition is reported as active: 40.1%.
In the case of `CCOC(=O)c1c(C)oc2nc(C)nc(NCc3ccc(F)cc3)c12`, the inhibition is reported as 4.72%.
`COc1ccc(C2=CC(c3ccccc3Cl)n3nc(-c4ccc(Cl)cc4)nc3N2)cc1` (centres undefined) was tested, and the inhibition was -20.3%.
`Cc1ccc(Cl)cc1N1CCN(C(=O)Cn2cnc3sc(C)c(S(=O)(=O)N4CCC(C)CC4)c3c2=O)CC1` showed an inhibition of 7.26%.
`COC(=O)c1scc(-c2ccc(C)cc2)c1S(=O)(=O)N1CCN(c2ccc(C(C)=O)cc2)CC1` gave an inhibition of 9.94%.
`Cc1nc2nc(NCc3ccc(Cl)cc3)[nH]n2c(=O)c1Cc1ccccc1` was tested, and the inhibition was -4.18%.
In the case of `Cc1nc2ccn(Cc3cccs3)c(=O)c2cc1C(=O)N1CCN(c2ccccc2F)CC1`, the inhibition is reported as -9.8%.
With `O=C(NCc1ccccc1CN1CCCC1)c1cccc(S(=O)(=O)Nc2ccc(F)cc2)c1` the inhibition was active: 61.7%.
For `O=C1C(=O)N(C2CCN(C(=O)c3ccccc3Cl)CC2)CCN1Cc1ccc(F)cc1`, the inhibition was 3.1%.
With `CC1CCN(S(=O)(=O)c2ccc3c(c2)N(CC(=O)NCCc2ccccc2)C(=O)CO3)CC1` the inhibition was 5.84%.
`COc1cccc(NC(=O)c2ccc3c(c2)CCN3S(C)(=O)=O)c1` gave an inhibition of -25.2%.
`Cc1ccc(CNC(=O)c2ccc(CSCc3cccc(C)c3)o2)cc1` gave an inhibition of -1.99%.
With `COc1cccc(-c2nnc(-c3ccccc3NC(=O)c3ccc(F)cc3F)o2)c1` the inhibition was 6.48%.
In the case of `Cc1ccc(C)c(OCCn2c(CCNC(=O)C3CCCCC3)nc3ccccc32)c1`, the inhibition is reported as -8.94%.
With `Cc1ccc(N2CC(C(=O)N3CCC(c4nc5ccccc5[nH]4)CC3)CC2=O)cc1C` (centres undefined) the inhibition was active: 33.6%.
In the case of `CC1(c2ccccc2)CC(C)(C)N(C(=O)c2cccc(Cl)c2)c2ccccc21` (centres undefined), the inhibition is reported as -4.05%.
With `COc1ccccc1NC(=O)c1ccc(CN2C(=O)C(C)=C(c3ccc(C)c(C)c3)S2(=O)=O)cc1` the inhibition was 6.47%.
`Cc1noc(-c2ccc(NC(C)c3ccccc3)c([N+](=O)[O-])c2)n1` (centres undefined) gave an inhibition of 11.2%.
In the case of `CCC(=O)N1CCc2cc(Br)cc(S(=O)(=O)N3CCN(c4ccccc4OC)CC3)c21`, the inhibition is reported as -7.06%.
Work on `CCOC(=O)CC(=O)CSc1nc2ccsc2c(=O)n1Cc1ccccc1` yielded an inhibition of 8.84%.
With `CN(C)S(=O)(=O)n1cnc([C@@H]2[C@@H]3C(=O)OC[C@@H]3C[C@]23N=CN(Cc2ccccc2)C3=O)c1` the inhibition was active: 30.9%.
With `Cc1ccc(CNC(=O)c2nc(SCc3ccccc3C)ncc2Cl)cc1` the inhibition was 6.83%.
Molecule `CCOC(=O)c1ccc2c(c1)N(Cc1ccc(F)cc1Cl)C(=O)c1ccccc1S2(=O)=O` has an inhibition of 1.56%.
`CCN(CC)CC#CCC(O)(c1ccccc1)c1ccc(Br)cc1` (centres undefined) was tested, and the inhibition was active: 34.5%.
`COc1cc(OC)c(NC(=O)Nc2cccc(OCc3cc(=O)n4ccccc4n3)c2)cc1Cl` showed an inhibition of 6.83%.
In the case of `O=C(CN1CCCCCC1)Nc1ccc(Br)cc1`, the inhibition is reported as active: 76.8%.
Work on `COc1ccc(-n2cc(-c3ccccc3)c3c(Nc4ccc(OC)c(OC)c4)ncnc32)cc1` yielded an inhibition of -3.47%.
With `Cc1cc2nn(-c3ccc(F)cc3)nc2cc1NC(=O)c1cccc2c(Cl)cccc12` the inhibition was -9.36%.
In the case of `Nc1nnnn1/N=C/c1cccc(OCc2ccccc2Cl)c1`, the inhibition is reported as active: 30.5%.
`CCCC(=O)Nc1nnc(S(=O)(=O)N2CCCCCC2)s1` gave an inhibition of 10.9%.
`COC(=O)C(NC(=O)CCc1c(C)nc2c(-c3ccccc3)c(C)nn2c1C)C(C)C` (centres undefined) gave an inhibition of 1.76%.
`Cc1ccc(Cl)cc1NC(=O)Cn1c(=O)n(CCC(=O)NCc2ccc3c(c2)OCO3)c(=O)c2sccc21` showed an inhibition of 24.7%.
With `O=C(NCCS(=O)(=O)N1CCN(c2ccc(F)cc2)CC1)c1ccco1` the inhibition was active: 33.1%.
`Nc1nc(NCc2ccco2)nc(N2CCN(Cc3ccccc3)CC2)c1[N+](=O)[O-]` was tested, and the inhibition was active: 88.8%.
Work on `CC1=C(c2ccc(F)cc2)S(=O)(=O)N=C1N1CCC(C(=O)NCCc2ccccc2C)CC1` yielded an inhibition of 13.5%.
Molecule `COc1ccc(C2C(C(=O)Nc3ccccc3)=C(C)Nc3nc(SCC(=O)c4ccc(C)cc4)nn32)cc1` (centres undefined) has an inhibition of 6.39%.
Work on `CCOC(=O)c1cn(CC(=O)Nc2ccc(OC)cc2OC)nn1` yielded an inhibition of 5.69%.
For `O=C(C1CCCN(S(=O)(=O)c2ccc(Br)s2)C1)N1CCN(c2ccccc2F)CC1` (centres undefined), the inhibition was -5.34%.
Also: 0% is about no effect.
